Some of the results follow. Single values are uncertain, as repeats are few or missing.

Test systems include MZ2-MEL; MeWo; RPMI7951; RVH-421; SkMel28; SkMel2; SkMel30; SkMel5; UACC257; UACC62.
Holding throughout (test): cell count relative to DMSO control; melanoma cells; higher = more viable cells
Details in all cases: library dose: low library concentration; 72 h
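Note: cell number obtained by counting DAPI-stained nuclei in high-throughput microscope images with image analysis software, screen run in 1,536-well plates.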

In the case of `CC(C)C[C@H](NC(=O)[C@H](Cc1ccccc1)NC(=O)c1cnccn1)B(O)O` [Bortezomib] + CO[C@@H]1[C@H](N(C)C(=O)c2ccccc2)C[C@H]2O[C@]1(C)n1c3ccccc3c3c4c(c5c6ccccc6n2c5c31)C(=O)NC4 [Midostaurin] (first compound 0.001 µM, partner dose 0.08 µM), the cell count with MZ2-MEL came to 71.3%; with MeWo it was 78.4%; in the assay with RPMI7951 it was 59.2%; in the assay on RVH-421, 58.1%; with SkMel28, 108%; in the assay with SkMel2 it was 80.3%. The cell count in the assay with SkMel30 amounted to 108%; with SkMel5, 91.6%; with UACC257, 59.5%; in the assay with UACC62, 75.6%.

Turning to `CC(C)C[C@H](NC(=O)[C@H](Cc1ccccc1)NC(=O)c1cnccn1)B(O)O` [Bortezomib] + COc1ccc2c(c1)CCC1C2CCC2(C)C(NCCCCCCN3C(=O)C=CC3=O)CCC12 [U73122] (first compound 0.001 µM, partner dose 0.4 µM), the cell count in the assay on MZ2-MEL amounted to 72.2%; with MeWo, 83.9%; with RPMI7951, 64.4%; in the assay with RVH-421 it was 67%; in the assay on SkMel28, 93.9%; with SkMel2, 98.2%. The cell count with SkMel30 worked out at 77.6%; in the assay with SkMel5, 92.4%; with UACC257 it was 71.5%; with UACC62, 65.4%.

Consider `Cn1c(=O)n(-c2ccc(C(C)(C)C#N)cc2)c2c3cc(-c4cnc5ccccc5c4)ccc3ncc21` + COc1cc(N2CCC(N3CCN(C)CC3)CC2)ccc1Nc1ncc(Cl)c(Nc2ccccc2S(=O)(=O)C(C)C)n1 [NVP-TAE684] (first compound 0.004 µM, partner dose 0.08 µM), for which the cell count in the assay with MZ2-MEL amounted to 95.2%; in the assay with MeWo it was 59.6%; with RPMI7951, 85.7%; in the assay with RVH-421, 87.6%; in the assay with SkMel28 it was 71.6%; with SkMel2, 82.2%. In addition, the cell count in the assay on SkMel30 is 73%; in the assay on SkMel5, 100%; with UACC257, 87.8%; in the assay with UACC62 it was 74.7%.

As to `Cn1c(=O)n(-c2ccc(C(C)(C)C#N)cc2)c2c3cc(-c4cnc5ccccc5c4)ccc3ncc21` + Oc1cc(-c2nc(-c3ccccc3)[nH]c2-c2ccncc2)ccc1Cl [L779450] (first compound 0.004 µM, partner dose 0.2 µM), the cell count turned out to be 72.8% in the assay with MZ2-MEL; 71.3% in the assay on MeWo; 76.2% with RPMI7951; 72.4% in the assay on RVH-421; 55.7% in the assay on SkMel28; 83.3% with SkMel2. The cell count with SkMel30 was 92%; in the assay on SkMel5, 94.3%; in the assay with UACC257, 81.6%; with UACC62, 74.4%.

On to `Cc1cn(-c2cc(NC(=O)c3ccc(C)c(Nc4nccc(-c5cccnc5)n4)c3)cc(C(F)(F)F)c2)cn1` [nilotinib] + COc1cc2c(Oc3ccc4[nH]c(C)cc4c3F)ncnc2cc1OCCCN1CCCC1 [cediranib] (first compound 0.2 µM, partner dose 0.4 µM), for which the cell count with MZ2-MEL amounted to 95.4%; in the assay with MeWo it was 96.3%; in the assay on RPMI7951, 94.2%; in the assay with RVH-421 it was 98.3%; in the assay on SkMel28, 98.5%; in the assay with SkMel2 it was 96.6%. Further, the cell count came to 85.3% in the assay on SkMel30, 85.3% with SkMel5, 74.4% with UACC257 and 99% in the assay on UACC62.

As to `COc1ccc(C2=N[C@@H](c3ccc(Cl)cc3)[C@@H](c3ccc(Cl)cc3)N2C(=O)N2CCNC(=O)C2)c(OC(C)C)c1` [Nutlin-3] + O=C(CCCCCCC(=O)Nc1ccccc1)NO [vorinostat] (first compound 0.1 µM, partner dose 0.08 µM), the cell count in the assay with MZ2-MEL amounted to 97.2%; in the assay on MeWo, 92.8%; in the assay with RPMI7951, 103%; in the assay with RVH-421 it was 92.6%; with SkMel28, 95.6%; in the assay with SkMel2, 87.8%. The cell count with SkMel30 worked out at 107%; with SkMel5, 99.3%; in the assay on UACC257 it was 84.6%; with UACC62, 88.1%.

As to `COc1ccc(C2=N[C@@H](c3ccc(Cl)cc3)[C@@H](c3ccc(Cl)cc3)N2C(=O)N2CCNC(=O)C2)c(OC(C)C)c1` [Nutlin-3] + Cn1cc(/C=C2\C(=O)Nc3cccnc32)c2ccccc21 [GW441756] (first compound 0.1 µM, partner dose 0.4 µM), the cell count with MZ2-MEL was found to be 90.6%; in the assay on MeWo it was 102%; in the assay with RPMI7951 it was 102%; in the assay with RVH-421 it was 115%; with SkMel28, 91.3%; with SkMel2 it was 110%. The cell count in the assay on SkMel30 was 96.8%; with SkMel5 it was 81%; in the assay on UACC257, 73.7%; in the assay with UACC62, 87.7%.

Take `Cc1cc(Nc2cc(N3CCN(C)CC3)nc(/C=C/c3ccccc3)n2)n[nH]1` + NC(=O)Nc1cc(-c2cccc(F)c2)sc1C(=O)N[C@H]1CCCNC1 [AZD7762] (first compound 0.04 µM, partner dose 0.02 µM): the cell count was found to be 102% in the assay with MZ2-MEL; 92.7% in the assay with MeWo; 80.3% with RPMI7951; 112% with RVH-421; 108% in the assay with SkMel28; 103% in the assay with SkMel2. Moreover, the cell count in the assay with SkMel30 turned out to be 112%; in the assay with SkMel5, 101%; in the assay on UACC257, 127%; in the assay on UACC62, 82.8%.

With `Cn1c(=O)n(-c2ccc(C(C)(C)C#N)cc2)c2c3cc(-c4cnc5ccccc5c4)ccc3ncc21` + O=C1NC(=O)/C(=C/c2ccc(-c3ccc(F)cc3O)o2)S1 [AS252424] (first compound 0.004 µM, partner dose 1 µM), the cell count in the assay with MZ2-MEL turned out to be 110%; in the assay with MeWo, 96.4%; in the assay with RPMI7951, 95.4%; in the assay with RVH-421, 86.7%; with SkMel28, 83%; in the assay with SkMel2, 87%. Moreover, the cell count in the assay with SkMel30 was found to be 94.5%; with SkMel5, 95.5%; in the assay on UACC257 it was 83.5%; in the assay on UACC62, 87.9%.

Take `Cc1cc(Nc2cc(N3CCN(C)CC3)nc(/C=C/c3ccccc3)n2)n[nH]1` + COc1ccc2c(c1)CCC1C2CCC2(C)C(NCCCCCCN3C(=O)C=CC3=O)CCC12 [U73122] (first compound 0.04 µM, partner dose 0.4 µM): the cell count was found to be 95% in the assay with MZ2-MEL; 89.6% in the assay with MeWo; 68.7% in the assay on RPMI7951; 65.1% in the assay on RVH-421; 95.6% with SkMel28; 94.8% in the assay on SkMel2. The cell count with SkMel30 is 105%; with SkMel5 it was 79.8%; with UACC257, 73.3%; in the assay on UACC62 it was 77.8%.
